Test results: PubChem BioAssay AID1347165 (National Center for Advancing Translational Sciences (NCATS), 2019)
About 5,700 (2.6%) of roughly 220,000 compounds were called active. Inconclusive results, whose numbers are uncertain, are shown with a selection of clear calls. The call rests on the fitted dose curve; in most records, active means well fitted inhibition curve with a large enough effect; inconclusive means small, poorly fitted or top-dose-only effect; inactive means no such curve, though single readings can be large or run the other way. Where the call is inconclusive, the potency comes from a doubtful curve fit.

target: Lysine-specific demethylase 5B (Homo sapiens) (UniProt Q9UGL1); test: Primary screen for KDM5B Histone Demethylases FDH-coupled qHTS; settings: FDH-coupled NADH fluorescence (FDH is formaldehyde dehydrogenase); activity change, negative = inhibition: at 57.7 µM (top of the series) unless noted; further: nearly all actives have a fitted effect of over 70% in size; on activity change, negative = inhibition: 0% is about no effect
Chain of UniProt Q9UGL1 (Q9UGL1 whole entry, looked up): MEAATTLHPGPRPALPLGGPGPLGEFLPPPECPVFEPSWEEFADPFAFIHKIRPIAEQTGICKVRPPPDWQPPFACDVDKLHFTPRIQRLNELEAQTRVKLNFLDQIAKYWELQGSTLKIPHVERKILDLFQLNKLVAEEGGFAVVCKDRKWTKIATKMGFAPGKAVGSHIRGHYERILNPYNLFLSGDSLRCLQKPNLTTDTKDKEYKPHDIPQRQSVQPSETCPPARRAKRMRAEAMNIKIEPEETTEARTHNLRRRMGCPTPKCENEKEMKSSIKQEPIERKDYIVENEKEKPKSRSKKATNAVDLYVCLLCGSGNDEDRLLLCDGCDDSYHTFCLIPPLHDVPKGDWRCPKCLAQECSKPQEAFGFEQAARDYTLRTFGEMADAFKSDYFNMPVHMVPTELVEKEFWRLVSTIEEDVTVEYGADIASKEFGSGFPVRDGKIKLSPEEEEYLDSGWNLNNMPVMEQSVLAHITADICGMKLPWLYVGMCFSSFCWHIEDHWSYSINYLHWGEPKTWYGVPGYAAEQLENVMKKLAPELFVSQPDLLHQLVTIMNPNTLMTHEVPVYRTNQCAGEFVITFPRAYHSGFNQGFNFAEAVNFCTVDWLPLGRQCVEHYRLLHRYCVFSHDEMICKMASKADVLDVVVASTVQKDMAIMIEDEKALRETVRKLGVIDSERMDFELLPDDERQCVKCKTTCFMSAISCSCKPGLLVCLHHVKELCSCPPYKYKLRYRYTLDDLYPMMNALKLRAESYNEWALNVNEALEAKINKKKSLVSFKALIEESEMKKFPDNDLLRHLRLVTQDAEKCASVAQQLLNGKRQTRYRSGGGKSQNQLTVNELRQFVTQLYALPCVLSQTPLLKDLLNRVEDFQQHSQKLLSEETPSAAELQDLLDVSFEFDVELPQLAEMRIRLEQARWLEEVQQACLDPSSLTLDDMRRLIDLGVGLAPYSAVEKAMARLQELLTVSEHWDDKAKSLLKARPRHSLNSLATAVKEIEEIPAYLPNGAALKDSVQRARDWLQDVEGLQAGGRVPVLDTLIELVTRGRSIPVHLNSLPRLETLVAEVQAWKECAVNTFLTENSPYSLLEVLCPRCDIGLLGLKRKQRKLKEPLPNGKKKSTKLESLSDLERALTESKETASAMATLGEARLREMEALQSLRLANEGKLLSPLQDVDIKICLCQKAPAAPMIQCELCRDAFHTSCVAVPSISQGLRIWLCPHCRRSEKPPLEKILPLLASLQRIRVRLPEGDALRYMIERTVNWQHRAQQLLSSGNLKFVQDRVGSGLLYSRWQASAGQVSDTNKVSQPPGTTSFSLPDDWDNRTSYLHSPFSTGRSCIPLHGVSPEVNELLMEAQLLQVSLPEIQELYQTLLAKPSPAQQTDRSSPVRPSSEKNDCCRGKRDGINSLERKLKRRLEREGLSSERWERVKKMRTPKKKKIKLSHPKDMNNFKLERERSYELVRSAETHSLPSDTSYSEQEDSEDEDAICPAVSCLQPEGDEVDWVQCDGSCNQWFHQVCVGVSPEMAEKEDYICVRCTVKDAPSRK
In short: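 KDM5BΔAP (200 nM final) in 50 mM HEPES pH 7.5, 0.01% Tween-20 was preincubated 10 min at RT with compound over a concentration range. Substrate mix (H3K4me3 12.5 µM, α-KG 25 µM, Fe²⁺, ascorbate, NAD⁺, FDH) was added, and NADH fluorescence change over 30 min gave dose-response curves.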
Potency means the concentration at half of the fitted maximal effect; tags describe the fitted curve by direction and shape.

SMILES	activity change, negative = inhibition	Potency
Cc1ccc(SC(C)C(=O)NC(C(C)C)C(C)C)cc1 (stereo not given)	inactive: 17.6%	–
CN1CCN(CC(O)COc2ccc(CN3CC(c4ccccn4)C3)cc2)CC1 (stereo not given)	inactive: 43.4%	–
CCN1c2cc(C(=O)Nc3ccc(C)cc3)ccc2C(=O)N2CCCC21 (stereo not given)	–	inconclusive: 3.16 µM [inhibitor, full curve, poor fit]
COc1ccc(C(=O)Oc2ccccc2Br)cc1Br	inactive: 19.2%	–
C[C@]1(CO)[C@H]2Cc3sc(NC(=O)c4ccc(F)cc4)nc3[C@@H](CC(=O)NC3CCCC3)[C@]2(C)CC[C@H]1O	–	inconclusive: 35.5 µM [inhibitor, single point]
O=C(Nc1ccc(Cl)cc1C(F)(F)F)c1ccc(F)cc1	inactive: 5.16%	–
CC(C)C[C@@H]1N[C@H](C(=O)NCc2cccs2)Cc2cn(CC3CC3)c3cccc1c23	–	inconclusive: 35.5 µM [inhibitor, partial curve]
CCOC(=O)c1cc(-c2cc(OC)c(OC)c(OC)c2)nc2ccccc12	–	inconclusive: 28.2 µM [inhibitor, partial curve, poor fit]
C=CCNC(=O)c1cccn2cncc12	–	inconclusive: 31.6 µM [inhibitor, partial curve, poor fit]
CCOc1ccc(C(=O)N2CCC(c3noc(-c4ccc(S(=O)(=O)N5CCCC5)cc4)n3)CC2)cc1	–	inconclusive: 1.58 µM [inhibitor, full curve, poor fit]
COc1cc(/C=C(/C#N)C(=O)c2ccccc2)cc(Cl)c1OC	–	inconclusive: 28.2 µM [inhibitor, partial curve, poor fit]
COc1cc(NC(=O)Cn2c(=O)n(Cc3ccco3)c(=O)c3oc4ccccc4c32)cc(OC)c1	–	inconclusive: 35.5 µM [inhibitor, partial curve, poor fit]
CC(C)n1ncc2cc(NC(=O)c3ccc(S(=O)(=O)N(C)C)cc3)cnc21	inactive: 0.642%	–
COc1ccc(CCNC(=O)c2ccc3c(c2)N(C)C2CCCN2C3=O)cc1OC (stereo not given)	–	inconclusive: 22.4 µM [inhibitor, partial curve, poor fit]
COC(=O)[C@@H]1Cc2nc[nH]c2CN1Cc1ccc(Cl)cc1	–	active: 31.6 µM
Cc1cccc(Cn2c(-c3cccc(Br)c3)nc3ccccc32)c1	–	inconclusive: 35.5 µM [inhibitor, single point]
Cc1noc(C)c1-c1cc2c(cc(C)n2C)c(-c2ccnn2C)n1	–	inconclusive: 7.94 µM [inhibitor, partial curve, poor fit]
CN(Cc1ccccc1)C(=O)C[C@@H]1O[C@H](CNC(=O)c2ccccc2)[C@@H](O)[C@H]1O	–	inconclusive: 31.6 µM [inhibitor, partial curve, poor fit]
COc1ccc(NC(=O)CSc2ccc(-c3ccco3)nn2)cc1	–	inconclusive: 22.4 µM [inhibitor, partial curve, poor fit]
Cc1cccc(N(CC(=O)Nc2ccccc2C(F)(F)F)S(=O)(=O)c2ccccc2)c1C	inconclusive: -35.5% [inhibitor]	–
Cc1nc(N2CCCCCC2)ncc1C(=O)O	–	inconclusive: 28.2 µM [inhibitor, single point]
Cc1cccc(C(=O)N2C(C(=O)NCC3CCCO3)COC23CCC(C)CC3)c1 (stereo not given)	–	inconclusive: 39.8 µM [inhibitor, partial curve, poor fit]

SMILES	activity change, negative = inhibition	Potency
COc1cccc2[nH]c(=O)c(-c3ccccc3)cc12	–	inconclusive: 39.8 µM [inhibitor, single point]
COc1ccc(OC)c(C2CC(=O)Oc3c2c(=O)n(C)c2ccccc32)c1 (stereo not given)	–	inconclusive: 1.41 µM [inhibitor, full curve, poor fit]
Fc1ccc(CNCc2cccnc2N2CCN(c3ccccn3)CC2)cc1F	–	inconclusive: 31.6 µM [inhibitor, single point]
Cc1ccc(-c2ccc3nnc(CNC(=O)Cc4cccs4)n3n2)cc1C	–	inconclusive: 22.4 µM [inhibitor, single point]
COCC(=O)N1CCCC(C(=O)NCc2ccc3nsnc3c2)C1 (stereo not given)	–	inconclusive: 28.2 µM [inhibitor, partial curve, poor fit]
Cc1nc(CN2C[C@H](C(=O)Nc3cccc(Cl)c3)C[C@@H]2c2ccc(F)cc2)cs1	–	inconclusive: 35.5 µM [inhibitor, single point]
CCCNC(=O)[C@@H]1Cc2cn(Cc3ccncc3)c3cccc(c23)[C@H](CC(C)C)N1	inactive: 21.1% [at 86.2 µM]	–
O=[N+]([O-])c1cccc(N=Cc2ccc(C#Cc3ccccc3)cc2)c1	–	inconclusive: 15.8 µM [inhibitor, partial curve, poor fit]
CCOc1ccc(CNC(=O)C2CCCN(c3nnc(C)c4c(C)n(-c5ccccc5)nc34)C2)cc1 (stereo not given)	–	inconclusive: 31.6 µM [inhibitor, partial curve, poor fit]
Cc1cc(C(F)(F)F)nc(CNC(=O)c2ccc3cccc(F)c3n2)n1	–	active: 22.4 µM
CCOc1cc(C2NC(=O)c3c(sc4c3CCN(C)C4)N2)ccc1OC(=O)c1ccc(Br)cc1 (stereo not given)	–	inconclusive: 28.2 µM [inhibitor, partial curve, poor fit]
Cc1nc(-c2ccccc2Cl)sc1C(=O)N[C@@H](C)C(=O)O	inactive: 10.2%	–
CCc1nc2c(c(-c3ccc(O)cc3)n1)CCN(Cc1cccnc1)CC2	inactive: 7.18%	–
CCCCn1c(=O)[nH]c(=O)c2c1nc(-c1ccc(-c3ccccc3)cc1)n2C	–	inconclusive: 22.4 µM [inhibitor, single point]
Cc1ccc(C#N)c(N2CCC(c3nnc(Cn4cncn4)n3C)CC2)n1	–	active: 28.2 µM
COc1cc(C)cc2oc(=O)c(CC(=O)O)c(C)c12	–	inconclusive: 25.1 µM [inhibitor, partial curve, poor fit]
CC1(C)[C@H]2CC[C@@H](CNC(=O)c3cccc4[nH]ccc34)[C@@H]1C2	–	active: 31.6 µM
CC(=O)C1=C(O)C(=O)N(Cc2ccccc2)C1c1ccc([N+](=O)[O-])cc1 (stereo not given)	–	inconclusive: 39.8 µM [inhibitor, single point]
O=C(Nc1ccccc1)N[C@H]1CO[C@H]2[C@@H]1OC[C@@H]2Nc1nccc(-c2cccs2)n1	–	inconclusive: 35.5 µM [inhibitor, partial curve, poor fit]
CC1(COCC2CC2)COc2ccc(C(=O)Nc3ccccc3)cc2N1 (stereo not given)	–	active: 25.1 µM
Cc1nnc2ccc(NCc3ccccc3F)nn12	–	inconclusive: 28.2 µM [inhibitor, partial curve, poor fit]
CN(Cc1ccccc1)C(=O)c1ccc(CSc2nc3cccnc3n2Cc2ccccc2F)cc1	–	inconclusive: 31.6 µM [inhibitor, partial curve, poor fit]

SMILES	activity change, negative = inhibition	Potency
COc1ccc(CCC(=O)N2CCC3(CC2)NC(=O)N(c2ccc(F)cc2)N3)cc1	inactive: -10.8%	–
COc1ccccc1Nc1sc(C(=O)c2ccc(F)cc2)c(N)c1S(=O)(=O)c1ccc(C)cc1	–	inconclusive: 2.51 µM [inhibitor, partial curve, poor fit]
CC(C)c1nc2cc(NC(=O)c3n[nH]c(=O)c4ccccc34)ccc2o1	inactive: -8.52%	–
CCCS(=O)(=O)N[C@@H]1CN(Cc2ccccn2)C[C@H]1CN(C)C	–	inconclusive: 35.5 µM [inhibitor, partial curve, poor fit]
CCc1ccc(NC(=O)Cn2ccn3nc4c(c3c2=O)CCCC4)cc1	–	active: 20 µM
CC(C)NC(=O)N1Cc2[nH]cnc2C[C@H]1c1nc(-c2ccc(Cl)cc2)no1	–	active: 31.6 µM
O=Cc1ccc2c(c1)CCN2Cc1ccccc1	–	inconclusive: 25.1 µM [inhibitor, single point]
CC(=O)c1ccc(OCc2ccc(-c3ccccc3C#N)cc2)cc1	inactive: -13.7%	–
Cn1c(NCc2ccco2)nc2c1c(=O)n(Cc1cccc(Br)c1)c(=O)n2C	inactive: 7.53%	–
COc1ccc(Br)cc1S(=O)(=O)Nc1cc(-c2cn3ccccc3n2)ccc1C	–	inconclusive: 35.5 µM [inhibitor, partial curve, poor fit]
N#Cc1ccc(-c2cccs2)nc1SCc1ccc(Br)cc1	–	inconclusive: 2.24 µM [inhibitor, partial curve, poor fit]
COC(=O)c1ccc(Oc2coc3cc(OCc4ccc(C)cc4)ccc3c2=O)cc1	inactive: -5.38%	–
Nc1nccnc1C(=O)NCCCc1ccccc1	–	inconclusive: 22.4 µM [inhibitor, partial curve, poor fit]
Cc1c(-c2ccccc2F)[nH]c2ccc(CNC(=O)CC3CCC(=O)N3)cc12 (stereo not given)	–	active: 31.6 µM
Cc1coc2c(C)c3oc(=O)c(CCC(=O)NCCc4ccccc4F)c(C)c3cc12	–	inconclusive: 15.8 µM [inhibitor, partial curve, poor fit]
COC(=O)c1cccc(-c2nccn2CC(O)c2ccccc2)c1 (stereo not given)	–	inconclusive: 22.4 µM [inhibitor, partial curve, poor fit]
Cc1ccc2c(COC(=O)COc3ccc(C)c(C)c3)cc(=O)oc2c1	inactive: 9.56%	–
O=C(CCn1cnc2ccccc2c1=O)NC1CCCN(CCc2ccccc2)C1 (stereo not given)	–	inconclusive: 4.47 µM [inhibitor, single point]
Cc1c(C)n(Cc2ccncc2)c2ncn3ncnc3c12	–	inconclusive: 25.1 µM [inhibitor, partial curve, poor fit]
O=C(CSc1nccn1Cc1ccc(F)cc1)Nc1nc2ccccc2s1	–	inconclusive: 11.2 µM [inhibitor, partial curve, poor fit]
CN(C)c1ccc(C(=O)N[C@H]2C[C@H]3C(=O)NC[C@@H](CCC(=O)NCc4ccc(F)cc4)N3C2)cc1	–	inconclusive: 22.4 µM [inhibitor, single point]
